Assay results from PubChem BioAssay AID504332 (National Center for Advancing Translational Sciences (NCATS), 2011).
Values joined by “and” are separate entries in the source; they are usually repeats but may differ in a detail not shown here. Identical values can stand only once. Screen size: about 350,000 compounds; about 31,000 (8.9%) were called active. The inconclusive results got no clear call from the source; some entries with a clear call stand among them for comparison. Calls follow the shape of the dose curve; as a rule, active = well fitted inhibition curve with a large enough effect; inconclusive = small, poorly fitted or top-dose-only effect; inactive = no such curve, though single readings can be large or run the other way. Potencies beside an inconclusive call are fits to weak or partial responses and may not hold up. Some compounds were tested as several samples or in several runs, with calls that do not always agree.

These molecules were tested against Histone-lysine N-methyltransferase EHMT2 (Homo sapiens) (UniProt Q96KQ7) (assay: qHTS Assay for Inhibitors of Histone Lysine Methyltransferase G9a). Conditions: G9a H3K9 monomethylation, AlphaScreen, 2 h; activity, negative = inhibition: at 59 µM (top of the series) unless noted.
Method in brief: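 AlphaScreen detection with an anti-monomethyl H3K9 antibody quantified product after a 2 h room-temperature reaction containing 500 nM biotinylated H3K9 peptide, 20 µM SAM and 20 nM enzyme, which had been preincubated 15 min with compound.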
% is scaled to controls: 0 for no effect and ±100 for the full control effect; potency is read from the fitted curve at half-maximal effect; tags tell the direction and shape of the fitted curve.
Also: nearly all actives have a fitted effect of over 75% in size.

UniProt Q96KQ7, sequence (Q96KQ7 whole entry, looked up): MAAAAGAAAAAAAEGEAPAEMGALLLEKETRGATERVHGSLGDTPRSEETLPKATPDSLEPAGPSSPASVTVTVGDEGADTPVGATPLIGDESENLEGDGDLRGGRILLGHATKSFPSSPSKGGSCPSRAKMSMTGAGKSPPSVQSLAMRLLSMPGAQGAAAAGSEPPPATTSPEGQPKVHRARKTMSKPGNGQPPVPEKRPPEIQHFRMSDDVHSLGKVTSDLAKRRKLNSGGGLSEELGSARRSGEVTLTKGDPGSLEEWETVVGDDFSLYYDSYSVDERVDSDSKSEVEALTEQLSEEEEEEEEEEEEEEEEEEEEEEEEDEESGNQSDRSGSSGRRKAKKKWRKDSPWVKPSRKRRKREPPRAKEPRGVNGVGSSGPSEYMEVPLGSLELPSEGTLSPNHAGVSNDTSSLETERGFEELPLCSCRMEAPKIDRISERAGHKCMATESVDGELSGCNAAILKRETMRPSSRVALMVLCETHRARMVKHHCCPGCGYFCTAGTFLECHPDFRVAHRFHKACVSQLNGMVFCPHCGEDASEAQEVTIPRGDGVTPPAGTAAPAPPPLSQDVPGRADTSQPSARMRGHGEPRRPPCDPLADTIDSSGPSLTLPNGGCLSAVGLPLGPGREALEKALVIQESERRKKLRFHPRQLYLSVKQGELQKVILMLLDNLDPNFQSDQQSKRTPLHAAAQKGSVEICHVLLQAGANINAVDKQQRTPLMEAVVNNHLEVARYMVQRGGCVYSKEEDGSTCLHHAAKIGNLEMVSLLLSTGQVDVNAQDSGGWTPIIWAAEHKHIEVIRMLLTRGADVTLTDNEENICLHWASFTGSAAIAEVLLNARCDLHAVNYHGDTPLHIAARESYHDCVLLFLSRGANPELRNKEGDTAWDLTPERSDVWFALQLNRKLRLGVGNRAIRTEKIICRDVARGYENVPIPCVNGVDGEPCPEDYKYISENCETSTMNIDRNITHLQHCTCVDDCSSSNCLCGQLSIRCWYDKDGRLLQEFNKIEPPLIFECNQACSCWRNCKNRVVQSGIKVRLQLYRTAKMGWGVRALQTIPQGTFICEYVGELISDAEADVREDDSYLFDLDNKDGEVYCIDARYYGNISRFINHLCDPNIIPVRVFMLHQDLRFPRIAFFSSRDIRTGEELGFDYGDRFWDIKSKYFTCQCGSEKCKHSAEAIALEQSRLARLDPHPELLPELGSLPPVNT

| Structure (SMILES) | Potency | activity, negative = inhibition |
| --- | --- | --- |
| CCCN1CCC(=O)N([C@H](CO)CC(C)C)CC1 | active: 31.6 µM |  |
| CC(C)n1cnc2cc(NCc3nc4ccccc4n3C)ccc21 | active: 44.7 µM |  |
| CC1=C[C@H](C)[C@H](c2c(F)cccc2Cl)CC1=O |  | inactive: 53.5% [at 102 µM] |
| O=C(CSc1nc2ccc(Cl)cc2[nH]1)c1ccc2c(c1)OCO2 | active: 35.5 µM |  |
| O=C(C1CCCN1S(=O)(=O)c1cccc2cccnc12)N1CCn2c1nc1ccccc12 (stereo not drawn) | inconclusive: 70.8 µM [inhibitor, single point] |  |
| CNC(=S)N(CCc1c(C)[nH]c2ccc(OC)cc12)Cc1cc(OC)c(OC)c(OC)c1 | active: 50.1 µM |  |
| CCN(CCCNC(=O)c1nn(-c2ccc(OC)cc2)c(=O)c2c1c1ccccc1n2C)c1ccccc1 |  | inactive: -1.92% |
| O=C(O)CCc1ccc(S(=O)(=O)Nc2cc(C(F)(F)F)ccc2N2CCCC2)cc1 | active: 28.2 µM |  |
| COc1ccc(C(C2C(=O)CC(C)(C)CC2=O)C2C(=O)CC(C)(C)CC2=O)cc1CO | inconclusive: 79.4 µM [inhibitor, single point] |  |
| c1ccc(COc2ccc(OCCCNC3CCCC3)cc2)cc1 | inconclusive: 3.16 µM [inhibitor, single point] |  |
| COc1ccc2[nH]cc(CCNc3nc(-c4cccnc4)nc4ccccc34)c2c1 |  | inactive: -2.65% [at 0.501 µM] |
| CCOc1ccccc1CNCc1cccn1-c1nnc(N2CCN(c3ccccc3)CC2)s1 | active: 14.1 µM |  |
| COCCCn1c(C)cc(C(=O)CN2c3cccc4cccc(c34)S2(=O)=O)c1C | inconclusive: 39.8 µM [inhibitor, single point] |  |
| COc1ccc(C(=O)NCc2c(CC(C)C)oc(C)c2C(=O)O)cc1 | inconclusive: 50.1 µM [inhibitor, partial curve, poor fit] |  |
| CCC1=NN2C(=N)/C(=C\c3cccn3-c3ccc(OC)cc3)C(=O)N=C2S1 | inconclusive: 39.8 µM [inhibitor, full curve] |  |
| O=C(Nc1ccccc1F)c1ccc2c(Cl)c3c(nc2c1)CCC3 |  | inactive: -26.8% |
| CC(=O)c1nn(-c2ccc(Cl)cc2)c(=O)[nH]c1=O |  | inactive: 1.91% [at 102 µM] |
| COCCSc1ccccc1C(=O)N1CCN(c2ccccc2)CC1 | inconclusive: 44.7 µM [inhibitor, partial curve, poor fit] |  |
| O=C(NC(=S)Nc1ccc(N2CCOCC2)cc1)c1cncc(Br)c1 | inconclusive: 35.5 µM [inhibitor, single point] |  |
| O=C1CCCC2=C1C(c1ccccc1)C1C(=O)c3ccccc3C1=N2 (stereo not drawn) | inconclusive: 44.7 µM [inhibitor, partial curve, poor fit] |  |
| CCCCNC(=O)c1ccc2c(c1)ncn2-c1cc(OC)ccc1OC | inconclusive: 31.6 µM [inhibitor, partial curve] |  |
| CC(=O)c1c(C)oc2c1cc(NS(=O)(=O)c1ccc(Br)cc1)c1ccccc12 |  | inactive: -0.727% |
| COc1ccc(-c2ccc(C(=O)O)o2)c([N+](=O)[O-])c1 | active: 56.2 µM |  |
| CCc1ccccc1NNC(=O)c1cc(C)on1 | active: 3.16 µM |  |
| COC(=O)c1ccc(NC(=O)c2nc(-c3ccc(Cl)cc3)n3c2CCCCC3)cc1 | inconclusive: 11.2 µM [inhibitor, partial curve] |  |

| Structure (SMILES) | Potency | activity, negative = inhibition |
| --- | --- | --- |
| Cn1c(=O)[nH]c(=O)c2c1nc(N1CCCCCC1)n2CCCSc1nnnn1-c1ccccc1 | inconclusive: 25.1 µM [inhibitor, single point] |  |
| N#Cc1ccc(CN2CCC3(CC2)CCN(C(=O)c2cnccn2)CC3)cc1 |  | inactive: -6.29% [at 12.7 µM] |
| CCCCn1c(N)c(N(CC(C)C)C(=O)CN(C)S(=O)(=O)c2ccc(C)cc2)c(=O)[nH]c1=O | inconclusive: 89.1 µM [inhibitor, single point] |  |
| COCc1c(C(=O)N/N=C/c2ccc(C)o2)nnn1-c1nonc1N | inconclusive: 79.4 µM [inhibitor, single point] |  |
| CCn1cc(/C=C/C(=O)Nc2ccc(C)cc2Br)cn1 |  | inactive: 17.4% |
| COc1cc(-c2n[nH]c(=S)n2-c2ccccc2C(F)(F)F)cc(OC)c1OC | active: 3.55 µM |  |
| CC1=C(/C=C/C(C)=C\C=C\C(C)=C\C(=O)O)C(C)(C)CCC1 | inactive and active: 22.4 µM |  |
| Cc1c(C)n(Cc2ccc(Cl)cc2)c2ccc(C(=O)NCCN3CCOCC3)cc12 | inconclusive: 50.1 µM [inhibitor, partial curve, poor fit] |  |
| O=C(NNC(=S)NC(=O)c1ccccc1Cl)c1cccc([N+](=O)[O-])c1 | active: 35.5 µM |  |
| COc1ccccc1NC1CCCCC1NS(=O)(=O)c1ccccc1 (stereo not drawn) | inconclusive: 44.7 µM [inhibitor, partial curve, poor fit] |  |
| COc1ccccc1NC(=O)C1=C(C)Nc2nnnn2C1c1ccc(C(F)(F)F)cc1 (stereo not drawn) |  | inactive: -17.7% |
| CSc1cccc(N2C(=O)C3CCCN3C2=S)c1 (stereo not drawn) | active: 70.8 µM |  |
| CCOC(=O)c1ccc(N=CC2=C(O)CC(C)(C)CC2=O)cc1 | inconclusive: 22.4 µM [inhibitor, full curve] |  |
| CCN(CC)CCNC(=O)Cc1c(C(=O)O)n(CC)c2ccccc12 | inconclusive: 89.1 µM [inhibitor, partial curve, poor fit] |  |
| COc1cc(NC(=O)N2c3ccccc3Sc3ccccc32)cc(OC)c1 |  | inactive: -6.17% |
| O=C(CSc1nccn1-c1ccc(Cl)cc1)Nc1ccc(Cl)c(Cl)c1 |  | inactive: -10.6% |
| O=C(C(=O)N1CCN(c2ccccc2)CC1)c1c[nH]c2ccccc12 |  | inactive: 16.6% |
| Cc1ccc(-c2csc3ncn(C(C)C(=O)O)c(=O)c23)cc1 (stereo not drawn) |  | inactive: 15.4% [at 102 µM] |
| Cc1ccc(S(=O)(=O)CNC(=S)c2cccc(Cl)c2)cc1 | inconclusive: 31.6 µM [inhibitor, single point] |  |
| O=C1C(c2ccc(F)cc2)N(CCc2ccc(Cl)cc2)C(=O)CN1C1CCCCCC1 (stereo not drawn) | inconclusive: 39.8 µM [inhibitor, single point] |  |
| NC(=O)SCC(=O)Nc1ccccc1C(=O)O | active: 50.1 µM |  |
| CCNC(=O)CCc1nc(-c2ccc(C(C)(C)C)cc2)no1 | inconclusive: 1 µM [inhibitor, single point] |  |
| CCCOC(=O)c1c(NC(=O)C(C)Sc2nc(-c3ccccc3)cc(C(F)(F)F)n2)sc(C(=O)N(C)C)c1C (stereo not drawn) | active: 11.2 µM |  |
| Cc1ccc(-c2nn(-c3ccccc3)cc2/C=C2\SC(=S)N(CCCCCC(=O)O)C2=O)o1 | active: 3.98 µM |  |
| CCC(=O)Nc1ccc(C(=O)CN2CCC(C)CC2)cc1 | active: 10 µM |  |

| Structure (SMILES) | Potency | activity, negative = inhibition |
| --- | --- | --- |
| Cc1cccc(-c2nc3c(s2)CCc2onc(-c4ccc(Br)cc4)c2-3)c1 | inconclusive: 79.4 µM [inhibitor, single point] |  |
| COc1ccc(C2C(C#N)=C(SC)NC3=C2C(=O)CC(C)(C)C3)cc1 (stereo not drawn) |  | inactive: 25.1% |
| Fc1ccccc1/C=N/n1c(COc2ccccc2)n[nH]c1=S | active: 2.24 µM |  |
| COc1ccc(N2C(=O)CC(Sc3nc4ccccc4s3)C2=O)cc1 (stereo not drawn) | active: 25.1 µM |  |
| COc1ccc(CCNC(=O)CCc2ccsc2)cc1OC |  | inactive: 0.616% [at 102 µM] |
| O=C1c2cccc3cccc(c23)C(=O)N1c1nccs1 | inconclusive: 3.55 µM [inhibitor, single point] |  |
| CCOC(=O)C1CCCN(C(=O)Cn2cnc3c2c(=O)n(C)c(=O)n3C)C1 (stereo not drawn) |  | inactive: -32.9% [at 102 µM] |
| O=C(O)c1cccc(N/N=C(\N=Nc2ccccc2)c2ccccc2)c1 |  | inconclusive: -104% [inhibitor] [at 2.33 µM] |
| COc1ccc2cc(C(=O)C3CCCN(C(=O)C4=NN(C)C(=O)CC4)C3)ccc2c1 (stereo not drawn) |  | inactive: -1.78% [at 102 µM] |
| CCCCSC1(SCCCC)N=C(N)C2(C#N)C(c3ccccc3)NC(C)=C(C)C12C#N (stereo not drawn) | inconclusive: 79.4 µM [inhibitor, partial curve, poor fit] |  |
| O=C(/C=C/c1ccc(Br)cc1)NC(=S)Nc1ccc(S(=O)(=O)Nc2nccs2)cc1 | inconclusive: 89.1 µM [inhibitor, single point] |  |
| Cc1cc(C(=O)COC(=O)c2ccccc2NCCO)c(C)n1CC1CCCO1 (stereo not drawn) | inconclusive: 20 µM [inhibitor, partial curve, poor fit] |  |
| Cc1ccc2oc(Nc3nc(C)c(C)c(C)n3)nc2c1 |  | inactive: 23% [at 102 µM] |
| COc1cc(NC(=O)CCc2c(C)nn(-c3ccc4nnc(C)n4n3)c2C)cc(OC)c1OC |  | inactive: 23.7% |
| O=C1C=C(NCCN2CCOCC2)C(=O)c2cnccc21 | inconclusive: 79.4 µM [inhibitor, single point] |  |
| COc1ccc(N2CCN(C(=O)CCCC(=O)c3ccccc3)CC2)cc1 |  | inactive: -13.8% [at 102 µM] |
| CCOc1ccc(S(=O)(=O)c2c(C(=O)c3ccc(CC)cc3)cnc3ccc(C)cc23)cc1 | inconclusive: 4.47 µM [inhibitor, partial curve, poor fit] |  |
| CC(C)Cn1c(-c2ccccc2)nc(=S)c2c1CCCC2 | inconclusive: 3.55 µM [inhibitor, single point] |  |
| N#Cc1cc2c(nc1SCc1ccccc1)CCC2 | inconclusive: 17.8 µM [inhibitor, single point] |  |
| O=C(CNc1cccc(S(=O)(=O)N2CCOCC2)c1)Nc1ccc(C(F)(F)F)cc1 | inconclusive: 56.2 µM [inhibitor, partial curve, poor fit] |  |
| COCCn1c(=O)c(-c2cc(F)cc(F)c2)nc2cnc(N3CCOCC3)nc21 |  | inactive: 4.53% [at 0.501 µM] |
| CC1Cc2ccccc2N1C(=O)c1ccc(N2CCCC2)c([N+](=O)[O-])c1 (stereo not drawn) | inconclusive: 39.8 µM [inhibitor, single point] |  |
| CC1(C)CC(NC(=O)c2ccccn2)CC(C)(C)N1O | inconclusive: 10 µM [inhibitor, partial curve, poor fit] |  |
